Data published in the supplement of paper PMC10126150.
Sequences with one replicate were seen in a single cluster, so their values are uncertain.

Tested on: ATP
Test: switch fluorescence ratio, 500 uM ATP over buffer (Cy3 cluster intensity, sum of 5 cycles each) (fold (ratio)); higher = stronger signal-on switching upon ATP binding; sequences stand for … in TCGTCGGCAGCGTCAGATGTGTATAAGAGACAGTTTTTTTTTTTTTTTTTTTTTTTTT…TC
Details: aptamer strand: ATP DNA aptamer (quencher-CACCTGGGGGAGTATTGCGGAGGAAGG + anchor), 100 nM annealed; ATP concentration: 500 uM; one replicate
Procedure, shortened: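 Per cluster, summed Cy3 intensity from the target cycles was divided by that from the buffer cycles to give the fluorescence ratio, then averaged per switch-domain sequence. Clusters outside 100-1000 RFU were excluded. The Cy3-labelled switching-strand clusters, on a modified Illumina MiSeq flow-cell, were annealed to 100 nM quencher-labelled ATP aptamer and imaged in selection buffer, then after 15 min with 500 uM ATP at 22 °C, for five cycles with NaOH stripping and re-annealing between them.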
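Note: ATP exposure 15 min at 22 °C before imaging.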

Sequence | switch fluorescence ratio
GTGACTAAGA | 1.06
GTGCACCGGT | 0.992
TTATGGTACT | 1.06
AGTTTAGCAG | 0.972
TCACTAGTAC | 1.17
CACCTAAAGG | 1.03
TGAGTGTAT | 1.01
ACCTTTGTAT | 1.01
TGCAGCCTAA | 1.02
CCAGGACCAA | 1.07
GGAAGTCGCT | 0.95
ATCTACTTGA | 1.03
ATAAAGTAGC | 1.02
GTCACAGGGT | 0.998
TATTTAGCAC | 1.08
TTAGAATCAT | 0.993
GTGTGAATGC | 0.919
TCTTCAGACA | 1.01
TTCTCTATCC | 1
TGCCATTGAA | 0.993
TTAGTGGGAT | 0.986
AGCCGTGTTA | 0.964
ACGGACTTTA | 1.16

Sequence | switch fluorescence ratio
AACTTTAGCT | 1.02
CAGACTCGAC | 1.09
TTTAAGAAGA | 1.02
ACAGCCGGGA | 0.998
ATGAGCTAGG | 0.968
ACACAGAAAT | 1.02
ATTCCCTGCG | 1.17
TATTAGTCAC | 1
AGCTTAAACG | 1.02
CGCAGACACT | 1.41
ATAGTTGATT | 0.958
AGCTTTAGTG | 1
TTTCCCTGAA | 0.978
TCTTTGAAAT | 0.968
GTTACATTGC | 1.07
TTTAGTGTGT | 0.953
AAACGCCGGC | 1.1
CCTCCTTTTC | 2.67
ATGTGAGCAC | 1.05
CCTATGGATC | 1.04
ATAATAAATA | 0.991
GGACGGATGA | 0.997
GAGTTAGAA | 0.989

Sequence | switch fluorescence ratio
CGTCAACCCC | 1.19
ACAGGTACTT | 1.07
TAACGTACTT | 1.51
AAGTTGGAGC | 1.06
GGCTAGCCTC | 1.01
CGGCGGCTGG | 0.965
TATAGCGGGT | 1.05
TTGCGCGTAA | 1.22
AGCGTCAATG | 1.01
TTGTTTCTAG | 0.993
ATCTGGG | 1.02
GCTGTCAACA | 1
TTCGTCACGC | 1.03
TTTACCTACG | 1.44
TCTGAGTAGT | 0.966
TGGGTGTAAG | 0.988
AACTCGTAAA | 0.982
GTGGCTTGGT | 1.06
GGGCCATTCT | 1.17
ATACTACGCC | 1.42
CGGCATTGGC | 1.05
TCATCCTCGC | 1.58
CTACATAAGG | 1.06

Sequence | switch fluorescence ratio
GGGAGTTGC | 0.99
GGTAGTAAA | 1
TTATCTCTTT | 0.991
AAGTATCTTC | 0.98
GTTATGAGAG | 0.974
AGCTGACCGC | 1.04
GCGTTAGGTC | 1.08
TCACATGTA | 1.02
TGGGGTCGA | 0.981
GGAAAGAGAT | 1.03
AACTACAAAT | 1.03
TCACGAGACG | 1.07
AAAGTAAATT | 1.01
GACTGTGTTC | 1.01
AAACCTAGTA | 1.01
AAGGCCTTGC | 1.05
ATTATGTGTA | 0.997
CAACATTGGC | 1.15
ATTCCGTCAT | 1.1
CAGTTTAGAA | 1.02
ACGCGGTGCG | 1.01
ACTGGCGGAC | 1.06
TAGCCTGGGA | 1.2

Sequence | switch fluorescence ratio
TCCGTAGATT | 1.39
CTATGGGCGA | 0.993
TAGGATTCGT | 1.05
CGCTTATATA | 1.06
TTGCAGCGTC | 1.02
AGACTTTGAT | 1.01
TCTTATTCT | 1.01
AACCTGTGGG | 0.998
ATTTGCCGTT | 1.02
CTAGACATGT | 1.01
TGGAGCTACT | 2.43
AAAGCATTG | 1.01
ATTTTCAGCA | 1.06
AGTTCCAAGG | 0.99
ATTTTTTGA | 1.03
TGAGGAATA | 1.02
ACTGAGCTGT | 1.03
ACCTGAGGTA | 1.03
TTGTTCTTTA | 1.02
TACAACAATG | 1.07
CGTTGTCTGA | 0.991
TTTCTATCTA | 1.01
CATAGCAAGT | 1.77

Sequence | switch fluorescence ratio
GCCCTAGAGT | 1.06
TGTTGCGACC | 1.04
CATTGGGTAC | 1.02
GAGTCTTTAG | 0.989
ATTTAAGTCA | 1.01
CTGAAGCCAA | 5.32
TTGTTAACGA | 0.966
CCAGTGCTGT | 1.01
TATGTGCACG | 1.05
AACAAAATC | 0.995
TTGAAGAAGA | 0.968
CAGTGGGCTG | 1.05
AGATACAGCT | 1.02
TACGGCTTCG | 1.09
GATCTATCGG | 0.974
ATCAACTTTT | 1
GCAGCAAGTT | 1.74
TTAATGTACA | 1.01
TCGATTGGTT | 0.975
CCTGTAGTTT | 0.984
GTCCCCCCTT | 1.05
TAAAGGCCTA | 1.01
ACCCGTCATC | 1.08

Sequence | switch fluorescence ratio
AATAGTCATT | 0.982
CGGAAGTCGG | 1.05
GCGTGGATTT | 1.03
CACTACACGT | 1.34
AGCTCGCTAC | 1.38
TTTTCCACTG | 1.03
GACTCTAACT | 1.05
TTCGGCCTGC | 1.01
TGCGTTGTCT | 1.01
CCACAGAGAT | 1.09
ACATGTAGTT | 0.933
TTTAATCTCT | 1
AATATCGCTA | 1.08
GAGGGGGT | 0.982
CCGATCGGCT | 1.02
TGTCGAGTGT | 1.01
CTTTATGTAG | 1.01
AATAACATCG | 0.975
GAGCCTCACT | 1.04
